No constants are given. Whether binding was seen depends on the method and setting. Binding seen in cells or lysates may run through a third protein. Some binding calls cover weakened binding; strength is not graded here. For some of these results: Where a sequence is shown, tags or fusion partners need not be part of it.
Experiments:
Test in all cases: co-IP; HEK293T cells co-transfected with Flag- and HA-tagged plasmids; lysis in 50 mM Tris-HCl pH 7.5, 300 mM NaCl, 1% Triton-X, 5 mM EDTA, 10% glycerol; IP with anti-Flag antibody and Protein-G Sepharose, immunoblot with anti-HA and anti-Flag; in some panels cells treated with DMSO or ATP (5 mM) for 2 h; Fig. 6d-g shown as pairs of IPs whose antibodies the legend does not name
Flag-P2X7R(26–595) = molecular target: T1, Flag-P2X7R(26–595) (UniProt Q99572)
T1 sequence: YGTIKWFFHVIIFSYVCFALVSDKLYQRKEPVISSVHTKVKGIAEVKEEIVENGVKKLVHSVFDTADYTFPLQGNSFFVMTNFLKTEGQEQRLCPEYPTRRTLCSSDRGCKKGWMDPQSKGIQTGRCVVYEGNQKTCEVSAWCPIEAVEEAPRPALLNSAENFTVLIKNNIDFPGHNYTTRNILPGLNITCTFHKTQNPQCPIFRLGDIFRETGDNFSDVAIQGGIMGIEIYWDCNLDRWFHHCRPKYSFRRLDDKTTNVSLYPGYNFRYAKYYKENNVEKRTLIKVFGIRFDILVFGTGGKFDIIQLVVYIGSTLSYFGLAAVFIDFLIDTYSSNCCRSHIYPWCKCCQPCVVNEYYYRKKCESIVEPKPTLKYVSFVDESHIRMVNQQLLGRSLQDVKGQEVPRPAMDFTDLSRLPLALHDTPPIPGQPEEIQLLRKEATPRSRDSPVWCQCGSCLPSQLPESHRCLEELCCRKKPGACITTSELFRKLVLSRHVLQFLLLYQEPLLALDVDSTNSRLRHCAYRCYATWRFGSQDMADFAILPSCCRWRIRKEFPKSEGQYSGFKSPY

Amino acid sequences for entries named in this document (tags omitted).
UniProt Q96RD7: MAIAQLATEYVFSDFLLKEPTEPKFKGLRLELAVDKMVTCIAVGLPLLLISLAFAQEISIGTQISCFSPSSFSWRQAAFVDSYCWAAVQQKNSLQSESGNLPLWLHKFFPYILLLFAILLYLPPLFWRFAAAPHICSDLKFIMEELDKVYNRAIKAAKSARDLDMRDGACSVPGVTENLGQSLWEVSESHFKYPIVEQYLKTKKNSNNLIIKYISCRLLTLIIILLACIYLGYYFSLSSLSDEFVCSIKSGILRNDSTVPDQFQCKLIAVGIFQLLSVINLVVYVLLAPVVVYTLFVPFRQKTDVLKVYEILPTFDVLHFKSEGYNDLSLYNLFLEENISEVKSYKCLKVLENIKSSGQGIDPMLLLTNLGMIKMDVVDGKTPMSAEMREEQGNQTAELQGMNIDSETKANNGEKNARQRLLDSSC
UniProt P49023: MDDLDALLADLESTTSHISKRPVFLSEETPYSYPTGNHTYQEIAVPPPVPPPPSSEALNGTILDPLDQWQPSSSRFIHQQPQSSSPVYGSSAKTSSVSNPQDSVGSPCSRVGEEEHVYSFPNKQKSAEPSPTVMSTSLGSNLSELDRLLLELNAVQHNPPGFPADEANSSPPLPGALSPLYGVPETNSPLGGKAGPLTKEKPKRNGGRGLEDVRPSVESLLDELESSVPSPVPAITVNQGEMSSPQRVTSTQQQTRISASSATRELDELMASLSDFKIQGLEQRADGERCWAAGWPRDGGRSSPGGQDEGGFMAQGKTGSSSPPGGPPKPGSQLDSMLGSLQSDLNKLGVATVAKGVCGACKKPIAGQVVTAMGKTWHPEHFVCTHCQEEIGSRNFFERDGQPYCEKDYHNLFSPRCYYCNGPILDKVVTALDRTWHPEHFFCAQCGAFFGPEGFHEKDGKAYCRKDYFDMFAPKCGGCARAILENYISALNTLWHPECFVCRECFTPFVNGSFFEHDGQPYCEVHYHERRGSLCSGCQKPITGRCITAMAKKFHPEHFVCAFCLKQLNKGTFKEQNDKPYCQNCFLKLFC

Flag-P2X7R(31–595) = molecular target: T2, Flag-P2X7R(31–595) (UniProt Q99572)
T2 sequence: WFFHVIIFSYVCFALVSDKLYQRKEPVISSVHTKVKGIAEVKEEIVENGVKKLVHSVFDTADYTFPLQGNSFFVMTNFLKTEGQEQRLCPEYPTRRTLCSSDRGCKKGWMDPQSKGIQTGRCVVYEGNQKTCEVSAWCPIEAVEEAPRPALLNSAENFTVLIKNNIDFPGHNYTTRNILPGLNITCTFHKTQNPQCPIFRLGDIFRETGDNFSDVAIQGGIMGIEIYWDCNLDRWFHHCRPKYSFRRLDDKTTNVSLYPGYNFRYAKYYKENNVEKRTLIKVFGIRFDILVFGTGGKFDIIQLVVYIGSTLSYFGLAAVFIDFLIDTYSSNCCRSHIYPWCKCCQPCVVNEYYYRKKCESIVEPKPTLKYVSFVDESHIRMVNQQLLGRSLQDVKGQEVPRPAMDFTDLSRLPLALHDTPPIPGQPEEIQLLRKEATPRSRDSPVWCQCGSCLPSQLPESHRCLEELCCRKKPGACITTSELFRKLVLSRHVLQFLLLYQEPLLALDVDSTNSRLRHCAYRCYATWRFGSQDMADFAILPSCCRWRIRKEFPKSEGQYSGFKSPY

Flag-P2X7R(33–595) = molecular target: T3, Flag-P2X7R(33–595) (UniProt Q99572)
T3 sequence: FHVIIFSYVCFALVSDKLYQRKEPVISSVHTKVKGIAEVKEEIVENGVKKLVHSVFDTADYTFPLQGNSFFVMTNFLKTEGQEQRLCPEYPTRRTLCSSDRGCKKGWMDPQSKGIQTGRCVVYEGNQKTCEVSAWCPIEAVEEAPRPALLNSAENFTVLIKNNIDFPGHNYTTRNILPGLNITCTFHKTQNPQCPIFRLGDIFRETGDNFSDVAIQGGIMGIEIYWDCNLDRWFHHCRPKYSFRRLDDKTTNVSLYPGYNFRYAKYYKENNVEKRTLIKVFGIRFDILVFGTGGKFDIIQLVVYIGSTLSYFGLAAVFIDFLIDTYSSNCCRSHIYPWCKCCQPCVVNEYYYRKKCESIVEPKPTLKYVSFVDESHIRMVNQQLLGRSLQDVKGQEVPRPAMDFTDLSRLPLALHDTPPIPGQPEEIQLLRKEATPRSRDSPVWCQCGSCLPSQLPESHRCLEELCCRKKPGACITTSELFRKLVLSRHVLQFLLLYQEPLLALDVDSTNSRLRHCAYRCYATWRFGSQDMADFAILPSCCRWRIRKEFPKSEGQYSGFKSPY

Flag-Pannexin-1 = Flag-Pannexin-1 (UniProt Q96RD7)

Substance: HA-Paxillin (from UniProt P49023 1-591)
- binding (Flag-P2X7R(26–595)): binds
- binding (Flag-P2X7R(31–595)): no binding
- binding (Flag-P2X7R(33–595)): no binding
- binding (Flag-Pannexin-1): binds
